Measured values from publication PMC4336329 (PLoS ONE, 2015).
The campaign covered roughly 310,000 compounds. About 14,000 (4.5%) showed an effect of 50% or more. The effect is printed as a negative number. The list shows a part of the results.

Biological target: human ether-à-go-go-related gene (hERG) potassium channel (human, UniProt Q12809)
Test: primary screen, population patch clamp on CHO cells stably expressing hERG
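Note: peak tail current of the secondary pulse compared with the same well before compound.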

Sequence of human ether-à-go-go-related gene (hERG) potassium channel (Q12809 whole entry, looked up): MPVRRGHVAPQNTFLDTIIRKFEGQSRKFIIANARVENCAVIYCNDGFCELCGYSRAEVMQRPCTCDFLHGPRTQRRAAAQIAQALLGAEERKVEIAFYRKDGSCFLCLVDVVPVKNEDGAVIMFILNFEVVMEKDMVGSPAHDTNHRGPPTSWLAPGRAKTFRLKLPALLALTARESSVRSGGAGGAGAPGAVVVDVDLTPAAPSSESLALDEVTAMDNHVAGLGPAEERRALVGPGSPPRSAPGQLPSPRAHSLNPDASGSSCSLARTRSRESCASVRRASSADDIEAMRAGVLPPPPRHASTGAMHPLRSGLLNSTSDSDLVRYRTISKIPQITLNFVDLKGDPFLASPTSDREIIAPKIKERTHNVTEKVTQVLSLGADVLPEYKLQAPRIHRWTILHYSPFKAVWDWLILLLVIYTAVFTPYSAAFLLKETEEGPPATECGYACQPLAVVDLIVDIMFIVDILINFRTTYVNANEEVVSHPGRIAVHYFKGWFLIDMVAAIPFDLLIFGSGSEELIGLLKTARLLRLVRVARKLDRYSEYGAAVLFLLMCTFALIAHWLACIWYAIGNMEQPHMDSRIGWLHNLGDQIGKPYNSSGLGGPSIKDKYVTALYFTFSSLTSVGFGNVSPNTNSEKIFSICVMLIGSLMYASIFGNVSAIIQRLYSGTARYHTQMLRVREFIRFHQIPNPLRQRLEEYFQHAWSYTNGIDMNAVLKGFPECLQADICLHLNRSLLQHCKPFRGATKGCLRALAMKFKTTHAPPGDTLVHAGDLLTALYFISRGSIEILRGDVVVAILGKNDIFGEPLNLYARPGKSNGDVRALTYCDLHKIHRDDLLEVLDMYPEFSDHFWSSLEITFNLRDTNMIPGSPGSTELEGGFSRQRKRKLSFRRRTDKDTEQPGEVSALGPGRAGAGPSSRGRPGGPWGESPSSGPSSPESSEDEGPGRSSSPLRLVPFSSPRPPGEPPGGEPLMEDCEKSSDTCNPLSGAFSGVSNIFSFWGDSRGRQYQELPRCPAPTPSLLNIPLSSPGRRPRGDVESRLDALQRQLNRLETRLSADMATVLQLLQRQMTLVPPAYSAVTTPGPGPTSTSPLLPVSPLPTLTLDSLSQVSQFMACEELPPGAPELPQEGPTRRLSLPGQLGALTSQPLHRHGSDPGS

SMILES | hERG current change (%, negative = inhibition) at 10uM
C/C(=N/NC(=O)CNC(=O)c1cccnc1)c1cccc([N+](=O)[O-])c1 | 2.99%
CN(c1ccc(OC(=O)CN2C(=O)NC3(CCCC3)C2=O)cc1)S(=O)(=O)c1ccccc1 | 16.7%
COc1ccc(N=C2SC(CC(=O)Nc3ccccc3OC)C(=O)N2Cc2ccco2)cc1 (centres unmarked) | 11.2%
COc1ccc(/C=N/n2cnc3c([nH]c4ccc(Br)cc43)c2=O)cc1CN1CCOCC1 | -8.88%
O=C(Nc1nc2c(s1)CN(Cc1ccccc1)CC2)C1CCC1 | 0.548%
N/C(=N\OC(=O)/C=C/c1ccccc1)c1ccc(Br)cc1 | 4.83%
Nc1ccccc1C(=O)NCc1ccc(F)cc1 | 35.8%
O=C(Nc1ccccc1)c1cccc(N2C(=O)CCC2=O)c1 | -4.84%
Cc1cc(OCC(=O)Nc2cc(C(C)(C)C)on2)ccc1[N+](=O)[O-] | -24.3%
COc1cc(CC(=O)N(C)CC(=O)Nc2ccc(Cl)c(C(F)(F)F)c2)cc(OC)c1OC | -16.2%
CCOC(=O)CCCSc1nnc(CCCCCN2C(=O)c3cccc4cccc(c34)C2=O)o1 | -17.7%
NC(=S)N/N=C1\c2ccccc2-c2c(C(=O)O)cccc21 | 12.7%
COc1ccc(C(=O)COc2ccc3ccc(=O)oc3c2)c(OC)c1 | 8.43%
O=S(=O)(Nc1ccc(O)c2ccccc12)c1ccc(F)cc1 | 14.3%
C=CCN=C1CC(C)(C)CC(=O)/C1=C(\O)c1ccccc1 | -6.18%
CCOc1ccc(-c2cc(CCCC(=O)N3CCN(c4ccc(OC)cc4)CC3)no2)cc1 | 10.3%
Cc1ccc(N)cc1NC(=O)CN1CCOCC1 | 13.5%
CC(C)C(NC(=O)/C=C/c1ccc(F)cc1)C(C)C | 16.1%
COc1ccc(CSc2n[nH]c(C)n2)cc1Br | 10.5%

SMILES | hERG current change (%, negative = inhibition) at 10uM
O=C1CCC(/C=C/c2ccccc2)=NN1Cc1ccc(Cl)c(Cl)c1 | -1.15%
CCc1ccccc1NC(=O)CN1CCN(C(=O)CNC(=O)c2ccc(N3CCCC3=O)cc2)CC1 | -3.9%
O=C(Nc1ccccc1N1CCOCC1)C1Cc2ccccc2CN1C(=O)c1ccco1 (centres unmarked) | -32.4%
CC(C)=CC(=O)Nc1ccc(S(=O)(=O)Nc2onc(C)c2C)cc1 | 27.8%
O=C(Nc1ccccc1Cl)NC1(C(=O)NCc2ccncc2)CCCCC1 | 13.7%
CCOC(=O)c1ccc(COc2ccc(C(C)C)cc2)o1 | -13.1%
COCCn1c(-c2ccccc2F)n[nH]c1=S | 21.5%
COc1ccccc1CN1CC(C(=O)N(C)CCc2nc3ccc(F)cc3[nH]2)CCC1=O (centres unmarked) | 10.1%
Cn1cc(C(=O)c2ccc(F)cc2)cc1-c1nc2ccccc2n1C | -50.5%
CNC(=S)N1N=C(c2ccc(OC)cc2)CC1c1ccc(N(C)C)cc1 (centres unmarked) | -1.59%
COc1ccc(CNCc2cc(C)c(OC)cc2C)c(OC)c1.O=C(O)C(=O)O | -54.9%
Cc1ccc(NC(Cc2cc(C)no2)c2ccccc2)cc1 (centres unmarked) | -33%
CC1(C)OC(C)(C)/C(=C/Nc2ccccc2)C1=O | 10.2%
COc1ccccc1N1CCN(CC(=O)N(CC(C)C)c2c(N)n(CC(C)C)c(=O)[nH]c2=O)CC1 | -2.1%
CCOC(=O)c1c(C)[nH]c(C)c1S(=O)(=O)N1CCN(c2ccc([N+](=O)[O-])cc2)CC1 | -29.6%
CCCCN(C)C(=O)c1nc2ccccn2c1CNC1CCC1 | -18.2%
CCOC(=O)CCNC(=O)N1CCCC(Cc2ccccc2)(C(=O)OCC)C1 (centres unmarked) | 2.55%
O=C(Nc1ccccc1)N1CCC(C(=O)N2CCN(c3ccccc3F)CC2)CC1 | -1.31%
O=C(O)CCC(=O)Nc1ccc(N2CCOCC2)cc1 | 12.6%

SMILES | hERG current change (%, negative = inhibition) at 10uM
O=C(c1ccc(-c2ccccc2)cc1)c1ccccc1C(=O)N1CCOCC1 | -23.7%
O=C(COC(=O)c1cc(-c2cccs2)nn1-c1ccccc1)Nc1cc([N+](=O)[O-])ccc1Cl | 0.0191%
O=c1cc(N2CCc3ccccc32)[nH]c(=O)n1-c1ccccc1 | 9.72%
Cc1cc(Br)ccc1NC(=O)CNC(=O)c1ccc(-n2cncn2)c([N+](=O)[O-])c1 | -59.9%
COc1ccc(C(=O)NC(=S)NCc2cccnc2)cc1OC | -57.3%
Cc1ccc(C(=O)N2N=C(c3ccccc3)CC2(O)C(F)(F)F)o1 (centres unmarked) | 10%
CCOc1ccc(N2C(=O)CC(Sc3nccc(C)n3)C2=O)cc1 (centres unmarked) | -13.2%
CCc1cccc(NS(=O)(=O)c2ccc3c(c2)NC(=O)CO3)c1 | 14.6%
COC(=O)N/N=C/c1c(C)cc(C)cc1C | 4.48%
CN1CCC(OC(=O)Cc2ccccc2)CC1.Cl | 5.22%
Cc1ccc(N2C(=O)C3C4CCC(O4)C3C2=O)c(OC(F)F)c1 (centres unmarked) | -6.32%
Cc1ccsc1/C=C(\C#N)C(=O)NCc1ccco1 | 2.81%
CC(c1ccon1)N(C)C(=O)CCc1nnc(CCCCc2ccccc2)o1 (centres unmarked) | -39.2%
CCOC(=O)c1cccc(NC(=O)Nc2ccc(OCC)cc2)c1 | -1.43%
CCn1cc([N+](=O)[O-])c(C(=O)Nc2nc3ccc(OC)cc3s2)n1 | 19.6%
CC1=CC2=NC(=O)CC(C)(C(=O)N(CC(=O)NC(C)(C)C)C3CCCC3)N2C=C1 (centres unmarked) | 4.07%
c1ccc(-c2nc(-c3cccnc3)n[nH]2)cc1 | 5.46%
O=c1c2cc(Cl)ccc2[nH]c(=S)n1Cc1ccccn1 | 18.5%
